This is an account of results in the supplement of paper PMC10369915.

This is one part of the list. Rule as the data show it: active = 3.2 or more and inactive = the rest. Most of these values are background signal.

B1: USP8_Y717_S718C (peptide)
chain: KLKRSYCSPDI
B2: VAV3_Y141_D139N (peptide)
chain: NDENIYKGLPD
B3: VCP_Y203_L198W (peptide)
chain: WNEVGYDDIGG
B4: VIM_Y150 (peptide)
chain: RLGDLYEEEMR
B5: USH2A_Y467_R464C_YF (peptide)
chain: NFCPGYNNFFN
B6: VHL_Y185 (peptide)
chain: IVRSLYEDLED
B7: VANGL1_Y344_YF (peptide)
chain: SHNELYFEEAE
B8: VHL_Y175_V170G (peptide)
chain: GKPENYRRLDI
B9: USP24_Y2138_YF (peptide)
chain: VFSSDYFSFVL
B10: USH2A_Y3745_YF (peptide)
chain: EPNSRYTFKLE
B11: VHL_Y112_H115R (peptide)
chain: RRIHSYRGRLW
B12: VHL_Y112_G114S (peptide)
chain: RRIHSYRSHLW
B13: VHL_Y185_L184R (peptide)
chain: IVRSRYEDLED
B14: VHL_Y112_H110Y (peptide)
chain: RRIYSYRGHLW
B15: USH2A_Y3747_Y3747C_YF (peptide)
chain: NSRFTCKLEVK
B16: USP8_Y717 (peptide)
chain: KLKRSYSSPDI
B17: VAV3_Y842_S840Y_YF (peptide)
chain: WFPFTYVEEDE
B18: VHL_Y185_L188Q (peptide)
chain: IVRSLYEDQED
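Also: displayed peptides selected on beads carrying the immobilized SH2 domain, with library peptides lacking any tyrosine serving as negative controls.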

The first test has as its target SHP2 C-SH2 domain E139D. In words: enrichment score (SH2-bound / input frequency) (ratio); bacterial display of known human phosphotyrosine sites (pTyr-Var adds point mutants) read by sequencing; higher = stronger binding; tyrosines were phosphorylated by kinases first. As to conditions: peptide library: pTyr-Var.
Consider B1, for which the enrichment score is inactive: 0.835.

For B2, the enrichment score is inactive: 0.931.

Take B3: the enrichment score was inactive: 0.833.

As for B4, the enrichment score was inactive: 0.901.

Turning to B5, the enrichment score is inactive: 1.04.

In the case of B6, the enrichment score was inactive: 0.917.

Consider B7, for which the enrichment score is inactive: 0.515.

B8: the enrichment score is inactive: 0.643.

For the molecule B9, the enrichment score is inactive: 0.966.

With B10, the enrichment score was inactive: 0.799.

With B11, the enrichment score was inactive: 0.21.

For B12, the enrichment score was inactive: 0.227.

Consider B13, for which the enrichment score was inactive: 0.247.

With B14, the enrichment score was inactive: 0.269.

Consider B15, for which the enrichment score is inactive: 0.797.

With B16, the enrichment score was inactive: 0.54.

With B17, the enrichment score was inactive: 1.8.

Consider B18, for which the enrichment score was inactive: 0.87.

Another test deals with SHP2 C-SH2 domain wild-type. Described as above. As to conditions: peptide library: pTyr-Var.
As for B1, the enrichment score was inactive: 0.837.

Regarding B2, the enrichment score is inactive: 0.652.

B3: the enrichment score is inactive: 0.635.

In the case of B4, the enrichment score was inactive: 0.768.

Take B5: the enrichment score was inactive: 1.16.

B6: the enrichment score is inactive: 0.891.

For the molecule B7, the enrichment score is inactive: 0.438.

Regarding B8, the enrichment score was inactive: 0.711.

In the case of B9, the enrichment score was inactive: 1.07.

B10: the enrichment score was inactive: 0.705.

As for B11, the enrichment score is inactive: 0.289.

For the molecule B12, the enrichment score is inactive: 0.219.

Take B13: the enrichment score is inactive: 0.222.

Take B14: the enrichment score is inactive: 0.222.

For B15, the enrichment score is inactive: 0.889.

In the case of B16, the enrichment score was inactive: 0.541.

On to B17, for which the enrichment score is inactive: 1.57.

For B18, the enrichment score is inactive: 0.964.

A further test deals with SHP2 N-SH2 domain L43F. The test is described as above. To be noted: peptide library: pTyr-Var.
As for B1, the enrichment score was inactive: 0.785.

B2: the enrichment score is inactive: 0.554.

In the case of B3, the enrichment score was inactive: 0.859.

Take B4: the enrichment score was inactive: 0.923.

Take B5: the enrichment score is inactive: 1.18.

As for B6, the enrichment score is inactive: 0.839.

Take B7: the enrichment score was inactive: 0.454.

In the case of B8, the enrichment score is inactive: 0.636.

Regarding B9, the enrichment score was inactive: 0.876.

As to B10, the enrichment score is inactive: 0.624.

For the molecule B11, the enrichment score is inactive: 0.262.

In the case of B12, the enrichment score is inactive: 0.325.

Take B13: the enrichment score is inactive: 0.271.

Take B14: the enrichment score is inactive: 0.353.

B15: the enrichment score is inactive: 0.829.

For B16, the enrichment score is inactive: 0.775.

For B17, the enrichment score is active: 3.74.

With B18, the enrichment score is inactive: 0.917.

The target of the next test is SHP2 N-SH2 domain T42A. Described as above. To be noted: peptide library: pTyr-Var.
Take B1: the enrichment score was inactive: 0.621.

Take B2: the enrichment score was inactive: 0.507.

Consider B3, for which the enrichment score was inactive: 0.626.

B4: the enrichment score is inactive: 0.922.

For the molecule B5, the enrichment score was inactive: 1.45.

Turning to B6, the enrichment score was inactive: 0.927.

B7: the enrichment score was inactive: 0.478.

For the molecule B8, the enrichment score was inactive: 0.485.

Turning to B9, the enrichment score was inactive: 0.919.

Consider B10, for which the enrichment score was inactive: 0.663.

Take B11: the enrichment score was inactive: 0.295.

In the case of B12, the enrichment score is inactive: 0.302.

As for B13, the enrichment score is inactive: 0.312.

As to B14, the enrichment score is inactive: 0.246.

For the molecule B15, the enrichment score is inactive: 0.655.

As for B16, the enrichment score is inactive: 0.581.

As for B17, the enrichment score was inactive: 2.12.

In the case of B18, the enrichment score was inactive: 0.6.

For a further test, the target named is SHP2 N-SH2 domain T52S. Described as above. To be noted: peptide library: pTyr-Var.
Turning to B1, the enrichment score is inactive: 0.551.

Regarding B2, the enrichment score is inactive: 0.705.

Take B3: the enrichment score is inactive: 0.86.

As to B4, the enrichment score is inactive: 0.713.

With B5, the enrichment score was inactive: 1.11.

As to B6, the enrichment score was inactive: 0.747.

As to B7, the enrichment score was inactive: 0.488.

For the molecule B8, the enrichment score is inactive: 0.579.

In the case of B9, the enrichment score is inactive: 0.78.

For B10, the enrichment score is inactive: 0.783.

B11: the enrichment score is inactive: 0.234.

In the case of B12, the enrichment score was inactive: 0.159.

In the case of B13, the enrichment score is inactive: 0.301.

As for B14, the enrichment score was inactive: 0.212.

Take B15: the enrichment score is inactive: 0.592.

Take B16: the enrichment score was inactive: 0.595.

Consider B17, for which the enrichment score was active: 4.79.

Take B18: the enrichment score was inactive: 0.786.

The target of another test is SHP2 N-SH2 domain wild-type. The description is as above. As to conditions: peptide library: pTyr-Var.
Take B1: the enrichment score was inactive: 0.882.

B2: the enrichment score was inactive: 0.688.

Regarding B3, the enrichment score was inactive: 0.812.

With B4, the enrichment score is inactive: 1.05.

In the case of B5, the enrichment score is inactive: 1.11.

As for B6, the enrichment score was inactive: 0.75.

Regarding B7, the enrichment score is inactive: 0.693.

As for B8, the enrichment score was inactive: 0.639.

Turning to B9, the enrichment score was inactive: 0.841.

As to B10, the enrichment score is inactive: 0.759.

On to B11, for which the enrichment score is inactive: 0.237.

On to B12, for which the enrichment score was inactive: 0.171.

On to B13, for which the enrichment score is inactive: 0.387.

In the case of B14, the enrichment score was inactive: 0.231.

In the case of B15, the enrichment score was inactive: 1.23.

Take B16: the enrichment score was inactive: 0.614.

Consider B17, for which the enrichment score was inactive: 2.08.

As to B18, the enrichment score is inactive: 0.734.
